# Measured values taken from paper PMC6919601, “Identification of Plasmodium dipeptidyl aminopeptidase allosteric inhibitors by high throughput screening” (PLoS ONE, 2019).
# Out of some 110,000 compounds screened, about 230 (0.21%) showed an effect of 50% or more. This is one part of the list.
# Target: DPAP1 (Plasmodium falciparum, UniProt Q8IIJ9)
# Test: primary screen, percent inhibition; read by cleavage of a fluorogenic dipeptide substrate; higher = more effect of the substance
# Design: species or system P. falciparum D10 trophozoite lysates; single well
# 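Further: 30 min substrate incubation versus DMSO and 10 µM JCP410 controls.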
# Chain of DPAP1 (Q8IIJ9 whole entry, looked up): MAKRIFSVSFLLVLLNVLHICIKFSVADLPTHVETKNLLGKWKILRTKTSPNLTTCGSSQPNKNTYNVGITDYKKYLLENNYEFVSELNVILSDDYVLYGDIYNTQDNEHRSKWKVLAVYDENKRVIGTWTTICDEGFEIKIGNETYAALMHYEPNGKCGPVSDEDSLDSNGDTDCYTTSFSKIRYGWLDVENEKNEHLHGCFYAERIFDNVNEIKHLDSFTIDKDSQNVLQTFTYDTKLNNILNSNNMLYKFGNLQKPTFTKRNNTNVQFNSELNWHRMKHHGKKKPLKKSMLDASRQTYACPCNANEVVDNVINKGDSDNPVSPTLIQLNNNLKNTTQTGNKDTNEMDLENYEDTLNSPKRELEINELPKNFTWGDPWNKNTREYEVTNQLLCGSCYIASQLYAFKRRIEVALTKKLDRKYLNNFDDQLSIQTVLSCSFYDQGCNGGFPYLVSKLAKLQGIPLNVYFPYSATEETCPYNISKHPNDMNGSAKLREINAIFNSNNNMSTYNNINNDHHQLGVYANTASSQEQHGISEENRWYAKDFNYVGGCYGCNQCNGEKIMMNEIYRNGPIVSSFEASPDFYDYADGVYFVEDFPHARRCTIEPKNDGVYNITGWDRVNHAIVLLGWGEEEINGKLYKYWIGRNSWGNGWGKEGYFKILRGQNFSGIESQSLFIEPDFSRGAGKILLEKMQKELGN
row,SMILES,% Inhibition @ 10 uM
1,Cc1cc(O)n2nc(NC(=O)c3ccco3)nc2n1,0.401%
2,Cc1nc(NCCO)c2c3c(sc2n1)CCCC3,-2.59%
3,COc1ccc(S(=O)(=O)Nc2ccccc2C(=O)NCC(C)C)cc1Br,-3.6%
4,Cc1cccc(Nc2ccncc2S(=O)(=O)NC(=O)NC2CCCCC2)c1,-2.29%
5,Cc1ccc(C2=NS(=O)(=O)N(C)C(C(=O)N3CCOCC3)=C2)cc1,3.92%
6,CC(=O)N1N=C(c2ccc(Cl)c(Cl)c2)CC1c1ccccc1 (stereo not drawn),3.06%
7,CC1=CCC2C(=O)N(c3ccc(F)c(Cl)c3)C(=O)C2C1 (stereo not drawn),-5.06%
8,COc1cc(C2C(C#N)=C(N)OC3=C2C(=O)CCC3)ccc1OCc1ccc(C)cc1 (stereo not drawn),-2.68%
9,Cc1ccc(NS(=O)(=O)NC(=O)Nc2nc(C)cc(C)n2)nc1,1.29%
10,COc1cccc(Cn2ccn(Cc3ccccc3OC)c(=O)c2=O)c1,0.0845%
11,COc1c(Cl)cc(Cl)cc1C(=O)Nc1ccc(C(=O)O)cc1,-2.09%
12,CC(C)(C)c1nnc(NC(=O)c2sc3ccccc3c2Cl)s1,0.565%
13,OC(c1ccc(F)cc1)(c1ccc(F)cc1)[C@@H]1CCCN1,1.43%
14,CC1(C)Cc2c(sc3ncn4nc(-c5ccncc5)nc4c23)CO1,-1.69%
15,CC(C)C[C@@H](C(=O)NC1(C#N)CC1)c1cccc(-c2cccc(-c3csc(N4CCN(C)CC4)n3)c2)c1,3.19%
16,CCOC(=O)c1c(C)c(-c2ccccc2)n(CC(=O)N2C(C)CCCC2C)c1C (stereo not drawn),1.72%
17,CCOC(=O)c1cnc2nc(C(F)(F)F)nn2c1N,3.66%
18,O=C1N=C(N2CCCC2)S/C1=C\c1ccc(OCc2ccccc2F)cc1,-6.53%
19,COc1ccc(C(=O)N2CCN(Cc3cccc(Cl)c3)CC2)cc1,-8.07%
20,C=CCNC(=O)c1c(NC(=O)c2ccccc2)sc2c1CCCC2,0.431%
21,O=C(O)CCC(=O)Nc1ccccc1Br,-0.999%
22,O=C1c2ccccc2C(=O)N1CC1OCc2ccccc2CO1,-0.467%
23,COc1cc(/C=C2/NC(=O)N(c3cccc(Cl)c3)C2=O)ccc1O,-8.46%
24,N#CCCS(=O)(=O)c1ccc(N)cc1,-1.77%
25,O=C(NC1CCCCC1)C1C2C=CC3(CN(Cc4cccs4)C(=O)C13)O2 (stereo not drawn),-4.65%
26,CSCCCN1CCN(CCOCCO)CC1,-1.21%

row,SMILES,% Inhibition @ 10 uM
1,COc1cccc(OC)c1C(=O)NC1CCCCC1,2.41%
2,CN(C)c1ccc(-c2nc3ccccc3o2)cc1,-0.507%
3,COc1cc(/C=C2/C(=N)N3OC(C)=CC3=NC2=O)cc(Cl)c1OCc1ccccc1F,3.63%
4,CN1CCN(C(=O)/C(=C/c2ccc(N(C)C)cc2)NC(=O)c2ccccc2)CC1,-3.19%
5,C=CCn1c(SCC(=O)c2ccccc2)nc2sc3c(c2c1=O)CCC3,-0.142%
6,CC(=C=CC(C)(C)C1NCCO1)CCC=C(C)C (stereo not drawn),-5.9%
7,Cc1cc(C)c(Cc2c(C)nc3c(C(=O)NCCC(C)C)cnn3c2C)c(C)c1,-4.06%
8,Cc1cc2c(c(=O)n1Cc1ccccn1)C(c1cc3c(cc1Br)OCO3)C(C#N)=C(N)O2 (stereo not drawn),-2.91%
9,CCCCN(C)C(=O)Cn1nc(CC)n2c(cc3sccc32)c1=O,3.4%
10,CCN1CCc2nc3sc(C(=O)Nc4cccnc4Cl)c(N)c3cc2C1,3.66%
11,N#CC1c2ccccc2C=CN1C(=O)c1ccc(F)cc1 (stereo not drawn),2.17%
12,CCN1CCN(C(=O)c2ccc(-n3c(C)cc4c3CCCC4)cc2)CC1,-0.613%
13,Nc1cccc(C(=O)CC2(O)C(=O)Nc3ccc(Br)cc32)c1 (stereo not drawn),-2.74%
14,CCOc1cc(CNCc2c(C(=O)O)c(C)n(Cc3ccc(C)cc3)c2C)cc(OCC)c1OCC,-5.49%
15,O=C(c1sc2ccccc2c1Cl)N1CCSCC1,-3.26%
16,Oc1[nH]c2ccccc2c1C1=NCCC1,-4.58%
17,COc1cccc(S(=O)(=O)NCC(=O)N2CCCCC2)c1,5.15%
18,Cc1cccc(C)c1OCCCCCN1CCN(C)CC1,7.67%
19,C=CCOc1ccc(CNC(C)(C)CO)cc1OC,-2.74%
20,Cc1nn(-c2ccccc2)c2c1C(c1c(F)cccc1F)C(C#N)=C(N)O2 (stereo not drawn),-4.75%
21,CC1CC(C)CN(CC(O)COCCC23CC4CC(CC(C4)C2)C3)C1 (stereo not drawn),-6.38%
22,COc1cc(C2=C/C(=C3/N=C(C)OC3=O)c3ccccc3O2)cc(OC)c1OC,-3.33%
23,Cc1ccc(OCC(=O)Nc2ccc(Cl)cc2)c(C)c1,-2.76%
24,O=C(Nc1ccncc1)c1cc2cc(Br)ccc2oc1=O,2.6%
25,COc1cccc2c1OC(c1ccc(F)c(F)c1)N1N=C(c3cccnc3)CC21 (stereo not drawn),1.88%
